Experimental data: PMC4336329 (PLoS ONE, 2015)
Out of some 310,000 compounds screened, about 2,200 (0.71%) showed an effect of 50% or more. The effect is printed as a negative number. Some of the results follow.

Target: human ether-à-go-go-related gene (hERG) potassium channel (human, UniProt Q12809)
Test: primary screen, population patch clamp on CHO cells stably expressing hERG

Chain of human ether-à-go-go-related gene (hERG) potassium channel (Q12809 whole entry, looked up): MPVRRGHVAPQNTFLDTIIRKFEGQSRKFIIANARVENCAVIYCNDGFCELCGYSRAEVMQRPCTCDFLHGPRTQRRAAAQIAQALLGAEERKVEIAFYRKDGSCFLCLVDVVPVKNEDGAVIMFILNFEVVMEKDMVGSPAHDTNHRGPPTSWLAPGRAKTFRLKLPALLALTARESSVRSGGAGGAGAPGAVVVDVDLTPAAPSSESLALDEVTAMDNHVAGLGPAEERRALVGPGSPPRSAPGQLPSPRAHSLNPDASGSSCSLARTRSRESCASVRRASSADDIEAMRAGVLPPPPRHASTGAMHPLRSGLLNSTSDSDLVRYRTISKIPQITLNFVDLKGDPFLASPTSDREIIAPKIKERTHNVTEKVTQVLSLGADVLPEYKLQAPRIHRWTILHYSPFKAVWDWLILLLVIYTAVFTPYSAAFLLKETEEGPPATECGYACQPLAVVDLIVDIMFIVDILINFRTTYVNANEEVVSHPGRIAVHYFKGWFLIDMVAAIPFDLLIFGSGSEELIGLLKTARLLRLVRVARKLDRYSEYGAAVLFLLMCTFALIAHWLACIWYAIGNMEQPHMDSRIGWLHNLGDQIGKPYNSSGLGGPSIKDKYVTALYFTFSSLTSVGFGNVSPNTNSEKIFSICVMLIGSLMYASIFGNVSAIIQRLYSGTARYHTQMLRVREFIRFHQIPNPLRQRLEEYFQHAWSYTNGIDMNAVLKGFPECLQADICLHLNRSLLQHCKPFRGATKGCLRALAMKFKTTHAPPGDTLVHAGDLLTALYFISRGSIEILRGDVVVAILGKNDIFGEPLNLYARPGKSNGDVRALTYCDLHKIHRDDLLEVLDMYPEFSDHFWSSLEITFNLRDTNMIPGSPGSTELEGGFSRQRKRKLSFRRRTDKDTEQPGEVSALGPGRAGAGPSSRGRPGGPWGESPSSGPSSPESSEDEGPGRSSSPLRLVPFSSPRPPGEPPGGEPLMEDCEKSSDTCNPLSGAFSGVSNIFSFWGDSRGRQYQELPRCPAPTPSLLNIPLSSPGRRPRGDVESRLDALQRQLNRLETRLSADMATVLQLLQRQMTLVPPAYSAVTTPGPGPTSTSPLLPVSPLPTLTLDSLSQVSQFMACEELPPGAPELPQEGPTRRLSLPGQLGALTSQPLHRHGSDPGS

Row | SMILES | hERG current change (%, negative = inhibition) at 1uM [%]
1 | O=C(COC(=O)c1ccccn1)Nc1cccc(Cl)c1 | 12.3
2 | COc1ccc(NS(=O)(=O)c2ccc(NC(C)=O)cc2)c(OC)c1 | 5.54
3 | O=C(NCc1ccccc1)C1=C[C@H](c2ccc(Br)cc2)C[C@H](OCCCCO)O1 | 2.21
4 | CCOC(=O)c1c(NC(=O)CSc2nnnn2-c2ccc(OC)cc2)sc(C)c1C | 10.5
5 | C#CC[N+](C)(C)CCCCCCCCCCCC.[Br-] | 2.14
6 | O=C(O)c1ccc(N2N=C(c3ccccc3)CC2c2ccccc2)cc1 (stereo not drawn) | 18
7 | N#Cc1c(NC(=O)C2CC(c3c(F)cccc3Cl)=NO2)sc2c1CCC2 (stereo not drawn) | -3.01
8 | COc1ccc(NC(=O)Nc2cccc(Cl)c2Cl)c(OC)n1 | 13
9 | CC(OC(=O)c1ccc(Cl)nc1)C(=O)NC1CCCC1 (stereo not drawn) | 15.4
10 | CC(C)Cc1nc2n[nH]c(N)c2c2c1CCC2 | 5.8
11 | CCOc1ccc(N2C(=O)CC(Sc3nc(C)cc(C)n3)C2=O)cc1 (stereo not drawn) | 4.96
12 | N#Cc1ccc(OCC(=O)OCC(=O)Nc2cc(C(F)(F)F)ccc2N2CCOCC2)cc1 | -5.38
13 | O=C(N/N=C\c1c(F)c(F)c(F)c(F)c1F)c1ccc(-c2ccccc2)cc1 | 4.6
14 | COc1ccc(NC(=O)C2CCN(C(=O)[C@@H]3Cc4ccccc4CN3C(=O)OC(C)(C)C)CC2)cc1 | 12.7
15 | C[C@@]12C(=O)OC(=O)[C@]1(C)C1CCC2O1 | 12.8
16 | Cc1ccc(-c2nc3cc(N)ccc3o2)c(C)c1 | 10.2
17 | COc1ccc(C(c2c(O)cc(C)oc2=O)c2c(O)cc(C)oc2=O)cc1 | 7.44
18 | CCOc1ccc(NC(=O)c2ccc(NC(=O)COC(=O)Cc3ccc(OC)cc3)cc2)cc1 | 19.8
19 | COc1ccccc1C(CNC(=O)CCNC(=O)c1ccccc1Cl)N1CCCC1 (stereo not drawn) | 0.0429
20 | C=CCNC(=O)COC(=O)c1ccc(Cl)c(S(=O)(=O)N(Cc2ccccc2)c2ccccc2)c1 | 7.04
21 | COc1ccc(-c2csc(C3=C(O)CN(Cc4ccc(S(N)(=O)=O)cc4)C3=N)n2)cc1OC | 4.7
22 | Cc1ccccc1OCC(=O)NCCNC(=O)c1ccncc1 | 8.59
23 | O=C(C1CC1)N1CCc2cc(S(=O)(=O)N3CCN(c4ccccc4)CC3)ccc21 | 16.8

Row | SMILES | hERG current change (%, negative = inhibition) at 1uM [%]
24 | CC(C)N1CC(C(=O)Nc2ccc(Cl)c([N+](=O)[O-])c2)CC1=O (stereo not drawn) | 15.6
25 | CC1Oc2ccccc2N(Cc2ccccc2F)C1=O (stereo not drawn) | -3.01
26 | C=CC(C)n1c(Br)nc2c1c(=O)[nH]c(=O)n2C (stereo not drawn) | -4.27
27 | OCc1ccnc2oc3ccccc3c12 | 14
28 | O=C(NCc1cccc(Cl)c1)c1cccc(S(=O)(=O)N2CCCC2)c1 | 5.16
29 | COc1ccccc1NC(=O)C(C)OC(=O)C1COc2ccccc2O1 (stereo not drawn) | 9.65
30 | COCCNC(=O)/C(C#N)=c1\s/c(=C\c2ccccc2OC(F)F)c(=O)n1Cc1ccccc1 | 5.59
31 | O=C(CCCN1C(=O)c2ccccc2C1=O)N1CCN(c2ccccn2)CC1 | -6.34
32 | O=C1OCCC1Sc1nc2cc(Cl)ccc2n1Cc1ccccc1 (stereo not drawn) | -7.57
33 | O=[N+]([O-])c1ccc(O)c(/C=N/Nc2ccc(Cl)nn2)c1 | 14.9
34 | Clc1ccc(-c2ccccc2)nn1 | 7.52
35 | Cc1ccc(OCCC(=O)OCC(=O)Nc2ccc(F)cc2)cc1 | 20.9
36 | Cc1cc(C)c2[nH]c(=O)c(C(c3nnnn3C(C)(C)C)N3CCN(C(=O)c4ccco4)CC3)cc2c1 (stereo not drawn) | -21.6
37 | COc1ccc(C2Nc3ccccc3C(=O)N2c2ccc(Cl)cc2)cc1Cn1cc([N+](=O)[O-])cn1 (stereo not drawn) | 8.01
38 | CN(C)CCNC(=O)COc1cccc2c1OC(C)(C)C2 | 24.2
39 | CN(C(=O)COC(=O)CSc1ccc(C(N)=O)cc1[N+](=O)[O-])C1CCCCC1 | 11.7
40 | COc1ccc(Nc2nc(N)c([N+](=O)[O-])c(N3CCCC3)n2)cc1 | 2.85
41 | Cc1ccc(S(=O)c2ccc(NC(=O)C3CC3)cc2C#N)cc1 (stereo not drawn) | 6.48
42 | CCOc1ccccc1N1CC(C(=O)NCCOc2ccccc2OC)CC1=O (stereo not drawn) | 4.57
43 | Cc1ccc(C(=O)NCCCn2ccnc2)cc1C | 6.3
44 | CCOCCn1c(CN2CCN(c3cccc(Cl)c3)CC2)nc2c1c(=O)n(C)c(=O)n2C | -10.5
45 | Cc1ccc(N(C)S(=O)(=O)c2ccc3[nH]cc(C(=O)NCCCN4CCOCC4)c(=O)c3c2)cc1C | 12
